Source: article PMC4336329 (PLoS ONE, 2015)
The whole screen tested about 310,000 compounds, of which about 14,000 (4.5%) showed an effect of 50% or more. Effects have a minus sign here. This is one part of the list.

target: human ether-à-go-go-related gene (hERG) potassium channel (human, UniProt Q12809); test: primary screen, population patch clamp on CHO cells stably expressing hERG
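Also: peak tail current of the secondary pulse compared with the same well before compound.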

human ether-à-go-go-related gene (hERG) potassium channel, sequence (Q12809 whole entry, looked up): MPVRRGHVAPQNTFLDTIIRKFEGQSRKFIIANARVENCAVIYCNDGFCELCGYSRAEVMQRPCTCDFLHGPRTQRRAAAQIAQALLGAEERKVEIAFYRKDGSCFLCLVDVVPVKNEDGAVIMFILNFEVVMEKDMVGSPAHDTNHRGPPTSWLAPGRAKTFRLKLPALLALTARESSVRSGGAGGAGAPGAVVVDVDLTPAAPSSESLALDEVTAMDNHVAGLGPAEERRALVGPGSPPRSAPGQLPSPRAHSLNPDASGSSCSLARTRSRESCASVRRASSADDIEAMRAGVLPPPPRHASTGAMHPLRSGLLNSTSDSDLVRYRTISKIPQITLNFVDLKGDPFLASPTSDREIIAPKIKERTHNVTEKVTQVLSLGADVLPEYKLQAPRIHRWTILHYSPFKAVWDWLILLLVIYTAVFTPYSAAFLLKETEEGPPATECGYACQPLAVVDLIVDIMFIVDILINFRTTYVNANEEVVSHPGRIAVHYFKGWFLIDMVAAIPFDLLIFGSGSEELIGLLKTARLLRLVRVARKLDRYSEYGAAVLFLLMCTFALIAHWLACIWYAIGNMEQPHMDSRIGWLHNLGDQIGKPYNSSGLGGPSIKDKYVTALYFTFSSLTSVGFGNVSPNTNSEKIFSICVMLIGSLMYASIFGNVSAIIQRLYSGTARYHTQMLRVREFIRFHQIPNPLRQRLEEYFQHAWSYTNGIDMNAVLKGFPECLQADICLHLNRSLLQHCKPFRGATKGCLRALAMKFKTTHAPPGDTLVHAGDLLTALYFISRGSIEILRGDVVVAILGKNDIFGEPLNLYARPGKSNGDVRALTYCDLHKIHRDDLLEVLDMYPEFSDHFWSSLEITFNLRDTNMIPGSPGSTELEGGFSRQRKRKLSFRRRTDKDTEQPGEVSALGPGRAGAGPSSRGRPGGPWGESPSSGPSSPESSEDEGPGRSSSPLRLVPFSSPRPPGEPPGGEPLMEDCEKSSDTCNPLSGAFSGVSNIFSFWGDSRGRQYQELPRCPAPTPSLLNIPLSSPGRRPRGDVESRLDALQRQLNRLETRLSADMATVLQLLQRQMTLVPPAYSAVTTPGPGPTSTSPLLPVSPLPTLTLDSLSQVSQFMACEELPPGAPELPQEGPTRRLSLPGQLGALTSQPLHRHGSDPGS

Row | SMILES | hERG current change (%, negative = inhibition) at 10uM [%]
1 | CCOC(=O)c1cc(NC(=O)N2CCOCC2)c(C)nc1C | -3.82
2 | Cc1ccc(OCC(=O)N2CCN(Cc3ccc([N+](=O)[O-])cc3)CC2)cc1.O=C(O)C(=O)O | -81.2
3 | COc1ccc(-c2cc(C(=O)N3CCCC(C(F)(F)F)C3)c3ccccc3n2)cc1 (stereo not shown) | 0.635
4 | CC(C)(C)c1ccc(C(=O)Nc2cccc3ncccc23)cc1 | -2.82
5 | CCOc1ccc(OCCOCCn2ccnc2)cc1 | 3.85
6 | CC(c1ccccc1)n1cnc2ccccc21 (stereo not shown) | 10.9
7 | O=C(NC(=S)N1CCN(C/C=C/c2ccccc2)CC1)c1c(F)cccc1F | -19.8
8 | CCOC(=O)C(=Cc1ccccc1OC)C(=O)OCC | -8.5
9 | COc1ccc(NC(=O)Nc2cc(C)ccc2OC(F)F)c(OC)c1 | -3.75
10 | COC(=O)c1cc(OC)c(OC)cc1NC(=O)CN1C(=O)c2ccccc2C1=O | -44.9
11 | CN(C)C(CNC(=O)Cc1cccc(C(F)(F)F)c1)c1ccccc1 (stereo not shown) | -2.68
12 | COc1ccc(N(CC(=O)NCc2ccco2)S(=O)(=O)c2ccccc2)cc1 | -2.89
13 | CCCNC(=O)c1ccc(CNc2c(N3CCC(C(=O)OCC)CC3)c(=O)c2=O)cc1 | 3.8
14 | O=C(CSc1nnc(CNC(=O)c2ccccc2F)o1)c1ccccc1 | -14.3
15 | O=C(c1ccc2c(Cl)c3c(nc2c1)CCCC3)N1CCC(N2CCCCC2)CC1 | -46
16 | Cc1c(Br)c([N+](=O)[O-])nn1C(C)C(=O)Nc1ccc2c(c1)OCO2 (stereo not shown) | -16.8
17 | CCCCCc1ccc(C(=O)CCCC)c(=S)[nH]1 | -15.6
18 | CCOC(=O)CCCc1ccc(/C(C)=N/NC(=S)NC)cc1 | 13.9
19 | CCOC(=O)c1ccc2c(c1)nc(SCC(=O)N1CCCCC1)n2CC | -30.4
20 | Nc1nc(N)nc(-c2ccc(Cl)cc2)n1 | 5.96
21 | CN(C)C(CNC(=O)CSc1nc2ccccc2c(=O)n1Cc1ccco1)c1ccccc1 (stereo not shown) | -67.1
22 | O=C(CCc1ccc(O)c(O)c1)N/N=C/c1ccc2c(c1)OCO2 | 9.98

Row | SMILES | hERG current change (%, negative = inhibition) at 10uM [%]
23 | COC(=O)C1=C(c2ccc(Cl)c(C(F)(F)F)c2)C[C@@H]2CC[C@H]1N2C(=O)N1CCCC1 | -17.8
24 | CCOCCCNC(=O)C1CCN(S(=O)(=O)N2CC(C)CC(C)C2)CC1 (stereo not shown) | 13.6
25 | Cc1cc2ccccc2n1CCC(=O)O | 33.2
26 | CCc1n[nH]c(=S)n1/N=C/C(C)=C\c1ccccc1 | 0.441
27 | CC1=C(OC(=O)c2ccc(Br)cc2)C(C)(C)C(c2ccccc2)OC1=O (stereo not shown) | 11.7
28 | COc1ccc(-c2cn3c(C)c(C(=O)NCc4ccc5c(c4)OCO5)sc3n2)cc1 | 11.2
29 | Fc1ccccc1-c1nc2nc3ccccc3nc2n1CC1CCCO1 (stereo not shown) | -0.454
30 | CCc1ccc(/C=N/NC(=O)c2nnn(-c3nonc3N)c2C(C)C)cc1 | 16.1
31 | COc1cc(/C=N/NC(=O)c2nc3ccccn3c2C)cc(OC)c1O | -5.17
32 | CSc1ccc(Cl)c(C(=O)Nc2nccs2)c1 | 1.65
33 | COc1ccc(N2C(=O)/C(=C/c3cc(C)n(-c4ccc(C)cn4)c3C)C(=O)NC2=S)c(OC)c1 | 7.04
34 | O=C1CC(=O)N(Cc2ccco2)C(=S)N1 | 4.78
35 | NC(=O)NOCc1ccc(F)cc1Cl | 19
36 | CCC(C)Sc1cc(-c2nc3ccc(C)cn3c2NCc2ccccc2)ccc1OC.O=C(O)C(F)(F)F (stereo not shown) | -1.12
37 | COc1ccc(N(C)C(=O)C2CCN(S(=O)(=O)c3cccc4nonc34)CC2)c(OC)c1 | -18.2
38 | CO[C@H]1[C@@H]2C=CO[C@@H](O[C@H]3O[C@@H](CO)[C@H](O)[C@@H](O)[C@@H]3O)[C@@H]2[C@@]2(CO)O[C@@H]12 | 11.9
39 | O=C(O)c1ccc(N=NNc2cccc([N+](=O)[O-])c2)cc1 | 6.55
40 | COc1ccc(N)cc1-n1cnnn1 | 39.3
41 | CC(=O)N1c2ccc(S(=O)(=O)N(C)Cc3ccco3)cc2CC1C (stereo not shown) | -8.73
42 | COc1cccc(CCc2nnc(CCC(=O)NC(C)c3c(C)nn(C)c3C)o2)c1 (stereo not shown) | 14.1
43 | Cc1ccc2c(-c3csc(N)n3)c[nH]c2c1 | 19.3
44 | O=C(NCCNC(=O)c1cnccn1)c1ccc(Cl)c(Cl)c1 | -13.3

Row | SMILES | hERG current change (%, negative = inhibition) at 10uM [%]
45 | COc1ccccc1C(=O)n1nc(-c2ccc(Cl)cc2)nc1N | -8.81
46 | CN(C)/C=C(\C#N)C(=O)N/N=C/c1ccc(Cl)cc1 | -29.8
47 | Cc1ccc(C(=O)Nc2ccc(C(=O)N/N=C/c3c[nH]c4ccccc34)cc2)cc1 | -15.8
48 | Cn1c(CNC(=O)OC(C)(C)C)nnc1SCC(=O)N1CCOCC1 | 8.91
49 | COc1ccc(C(=O)NCC2COc3ccccc3O2)cc1S(=O)(=O)N1CCOCC1 (stereo not shown) | -40.7
50 | O=C(CSc1nnc(-c2cccs2)n1-c1ccccc1)NCC1CCCO1 (stereo not shown) | -74.1
51 | CCCCn1c(SCC(=O)NCc2ccco2)nc2ccc(N3CCOCC3)cc2c1=O | -41.8
52 | Cn1c(=O)cc(OCC(=O)N2CCC(N3CCCCC3)CC2)c2ccccc21 | 12.2
53 | CCCn1c(C)cc(C(=O)Cn2nnc3ccccc3c2=O)c1C | -34.7
54 | O=C(Nc1ccc2ccccc2c1)c1ccccc1O | 24.6
55 | COc1ccccc1C(=O)NC(CCSC)C(=O)NCC(c1cccs1)N(C)C (stereo not shown) | 2.41
56 | Cc1ccc(N(CC(=O)NCC2CCCO2)C(=O)CCC(=O)Nc2nccs2)cc1 (stereo not shown) | 0.694
57 | Cc1ccccc1C(=O)N1CCC(C(=O)NC2CCCCC2)CC1 | 9.93
58 | COc1cccc(Nc2nc(-c3sc(N)nc3C)cs2)c1 | -18.2
59 | C/C(=N\NC(=O)c1ccncc1)c1ccc(NC(=O)c2ccc(Cl)cc2)cc1 | 11.2
60 | CN(Cc1nccs1)C(=O)c1ccc2nc(Cc3ccccc3F)oc2c1 | 0.701
61 | CCN(CC)CCC(c1ccc2c(c1)OCO2)c1c(OC)cc(OC)c2c(-c3ccccc3)cc(=O)oc12 (stereo not shown) | -65.4
62 | N/C(=N\OC(=O)CCC1CCCC1)c1ccc([N+](=O)[O-])cc1 | -24.6
63 | O=C1NC(C(F)(F)F)(C(F)(F)F)N=C2SC=CN12 | -0.905
64 | CCOC(=O)c1c(C)oc2c1c1c(c3ccccc32)OCN(Cc2ccccn2)C1 | 11.1
65 | O=C(Cc1ccccc1)N1CCN(S(=O)(=O)c2cccc([N+](=O)[O-])c2)CC1 | -22.2
66 | O=C(CSc1nnc2sc3ccccc3n12)c1ccco1 | -15.2

Row | SMILES | hERG current change (%, negative = inhibition) at 10uM [%]
67 | Cc1cc(CNC(=O)c2ccc3oc(C(C)C)nc3c2)nn1C | 9.38
68 | Cc1ccc(-c2nn(-c3ccccc3)cc2C(=O)Nc2cccc(S(=O)(=O)N3CCOCC3)c2)cc1 | 4.64
69 | Cc1ccnc(NC(=O)CCC(=O)N(CC(=O)NC2CCCCC2)C2CCCC2)c1 | -16
70 | Cc1ccc(C(=O)OCC(=O)c2ccc[nH]2)s1 | -2.74
71 | COC(=O)c1ccc2c(c1)NC(=O)C(N1CCOCC1)S2 (stereo not shown) | -7.25
72 | Cc1cc(NC(=O)c2ccc(N(C)S(=O)(=O)c3ccccc3)cc2)no1 | -11.5
73 | Cc1ccnc(NCc2cc(C)ccc2O)c1 | 12.2
74 | COC(CNC(=O)c1ccc(N2CCc3ccccc32)c([N+](=O)[O-])c1)OC | -13.9
75 | CN(/N=C/Cc1nnnn1-c1ccc(Cl)cc1)c1ccccc1 | -7.54
76 | CCCc1cc(C(=O)N2CCN(c3ccccc3C)CC2)cs1 | -25.9
77 | CCOC(=O)N1CCN(c2c(N3CCN(c4ccccn4)CC3)c(=O)c2=O)CC1 | -39
78 | Nc1n[nH]c(C2CC2)c1N=Nc1ccc(Cl)c(Cl)c1 | 7.85
79 | CC(C)C(=O)Nc1ccc(S(=O)(=O)N2CC3CC(C2)c2cccc(=O)n2C3)cc1 (stereo not shown) | 2.87
80 | COc1ccc(S(=O)(=O)NCC2CCCN(C(=O)c3cccnc3)C2)cc1 (stereo not shown) | 8.12
81 | Clc1ccc(OCc2cnc(Cl)s2)cc1 | -0.97
82 | CCOC(=O)c1c(/N=C/C2=C(O)CC(C)(C)CC2=O)sc(C(C)=O)c1C | 2.53
83 | CCCN(CCC)C(=O)/C=C/c1cccc([N+](=O)[O-])c1 | -34.5
84 | Cc1coc2c1c(C)cc1oc(=O)c(CC(=O)N[C@@H](C)C(=O)O)c(C)c12 | 20.9
85 | CCC(=Nc1ccc2c(c1)CCC2)c1c(O)n(-c2ccc(OC)cc2)c(=O)[nH]c1=O | -41.8
86 | O=C(O)C1SCCN1S(=O)(=O)c1ccc2ccccc2c1 (stereo not shown) | 8.04
87 | Cc1ccnn1CC(=O)N/N=C/c1cn[nH]c1-c1ccc(F)cc1 | -4.37
88 | COc1cc(/C=C/C(=O)c2ccc3c(c2)OCCO3)cc(Br)c1OCC(=O)N(C)C | -0.0898
